Data: PubChem BioAssay AID1346428 (National Center for Advancing Translational Sciences (NCATS), 2018)
Screen size: about 48,000 compounds; about 1,200 (2.5%) were called active. About 2% were inconclusive and are not listed.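 The calls were made as follows: active = activation of at least 60% and not above a set upper limit (about 1 call in 100 departs from these limits); inconclusive = activation of 40% to 60%, or above that upper limit; inactive = activation under 40%.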 The list shows a part of the results.

Target: Probable G-protein coupled receptor 32 (Homo sapiens) (UniProt O75388)
UniProt O75388, sequence (O75388 whole entry, looked up): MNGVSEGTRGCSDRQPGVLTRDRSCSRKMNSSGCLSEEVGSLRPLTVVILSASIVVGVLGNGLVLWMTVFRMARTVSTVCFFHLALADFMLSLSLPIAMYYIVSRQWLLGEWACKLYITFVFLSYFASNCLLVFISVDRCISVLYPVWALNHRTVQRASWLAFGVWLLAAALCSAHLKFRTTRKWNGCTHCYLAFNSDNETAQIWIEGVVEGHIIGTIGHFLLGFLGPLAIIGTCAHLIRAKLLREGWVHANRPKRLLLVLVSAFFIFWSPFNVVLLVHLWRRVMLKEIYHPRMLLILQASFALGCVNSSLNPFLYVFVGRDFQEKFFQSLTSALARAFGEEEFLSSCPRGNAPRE
Assay: qHTS for Agonists of Human Resolvin D1 Receptor DRV1; also: 0% is about no effect
Details: CHO-K1 GPR32 beta-arrestin PathHunter luminescence, 90 min; at 76.9 µM; stronger effect = higher value; zero percent set by DMSO-only wells
How it was run: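 PathHunter beta-arrestin recruitment in CHO-K1 cells stably expressing ProLink-tagged GPR32. Cells were exposed to compound for 90 min at 37 C, then chemiluminescence was read after 1 h detection at ambient temperature; DMSO served as basal control.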

activation, inactive:
COc1ccc(Cl)cc1NC(=O)c1cc(S(=O)(=O)N2CCC(C)CC2)cn1C -5.05%
CCc1nc2cccnc2n1-c1ccc(CC(=O)Nc2ccccc2Cl)cc1 -5.34%
CCOc1ccc(CNC(=O)CCC(=O)N2CC3CCCN3c3ccccc32)cc1 (centres undefined) -31.2%
CCOC(=O)c1c(N)n(-c2ccccc2CC)c2nc3ccccc3nc12 -2.42%
COc1ccccc1-c1noc(CSc2nnc(Cc3ccccc3)n2-c2ccc(C)c(C)c2)n1 -29.2%
Cc1ccc(C)n1-c1nnc(N2CCC(C(=O)NCc3ccc(F)cc3)CC2)s1 -25%
CC(C)C(=O)Nc1ccc2nc(SCC(=O)N3CCOCC3)sc2c1 -5.18%
Cc1ccc(N2CC(c3nnc(NC(=O)c4ccco4)s3)CC2=O)cc1Cl (centres undefined) -11.8%
O=S(=O)(c1ccc(Br)cc1)c1nnn2c1nc(NC1CCCCCC1)c1sccc12 -4.6%
CCc1nn(CC(=O)NCCC(C)C)c(=O)c2cc3occc3n12 10.7%
CC1(C)S[C@@H]2[C@H](NC(=O)[C@H](N)c3ccccc3)C(=O)N2[C@H]1C(=O)O 0.246%
CCn1c(C)c(C2N3CC4(C)CN2CC(CC)(C3)C4=O)c2ccccc21 (centres undefined) -10.5%
COc1ccc(NS(=O)(=O)c2ccc3c(c2)C(C(C)C)C(=O)N3)cc1 (centres undefined) 25.3%
Cc1ccc(CNC(=O)CSc2ncc(S(=O)(=O)c3ccc(Br)cc3)c(=O)[nH]2)cc1 -7.72%
Nc1c(C(=O)Nc2ccccc2Cl)c2ccccn2c1C(=O)c1ccc(Cl)cc1 27.2%
COc1ccc(NC(=O)CSc2nc3c([nH]c4ccccc43)c(=O)n2C)cc1 -9.07%
COC(=O)c1sccc1S(=O)(=O)N(CC(=O)NCc1ccccc1)c1ccccc1 -4.5%
Cc1ccc(CNC(=O)C(=O)NCC(c2cccs2)S(=O)(=O)c2ccc(C)cc2)cc1 (centres undefined) -1.53%
Cc1c(C(=O)N2CCC(C)CC2)c(S(=O)(=O)NCc2ccccc2)c(C)n1C -14%
COc1cccc(CC(=O)Nc2ccc3nc(N4CCC(C)CC4)cc(C)c3c2)c1 -6.3%
Cc1nn(C(=O)c2ccccc2F)c(C)c1S(=O)(=O)N1CCOCC1 -0.54%
COc1ccc(Nc2ncnc3c2cnn3-c2ccc(C)cc2C)cc1 6.28%
CCOc1ccccc1NS(=O)(=O)c1c(C)nc2sccn2c1=O 0.488%
COc1ccccc1C(=O)Nc1ccc2nc(N3CCC(C)CC3)cc(C)c2c1 20%
